# “And” between values parts separate entries of the source, which are not always exact repeats. Equal values may be shown once. Inconclusive means that the source gave no clear call. Such entries were picked first, then a sample of the others. For some of these results: Where the call is inconclusive, the potency comes from a doubtful curve fit. The source made the active and inactive calls. Unless noted, calls follow the shape of the dose curve; as a rule, active = well fitted curve in the direction sought with a large enough effect in the repeat runs; inconclusive = weak or mixed curves; inactive = no such curve, though single readings can be large; an effect the other way counts as inactive or inconclusive.
# What was measured:
# [1] = qHTS assay to identify small molecule that activate the aryl hydrocarbon receptor (AhR) signaling pathway - cell viability counter screen (AID 743086); also: nearly all actives have a fitted effect of over 45% in size
# How it was run: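 HepG2-AhR-luc (HG2L7.5c1) cells, 4000/well, were preincubated 5 h at 37C, exposed to compound in qHTS format for 24 hr at 37C, then given CellTiter-Fluor for 30 min; viability was read as fluorescence in the reporter wells.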
# [2] = target: Peroxisome proliferator-activated receptor gamma (Homo sapiens) (UniProt P37231); assay: qHTS assay to identify small molecule agonists of the peroxisome proliferator-activated receptor gamma (PPARg) signaling pathway (AID 743094; active = well fitted activation curve with a large enough effect in the signal ratio in the repeat runs, not every such curve was filed as active; inconclusive = weak or mixed curves, or effect the other way; inactive = no such curve, though single readings can be large or run the other way; the % refers to the signal ratio; as to activation: % is scaled to controls: 0 for no effect and ±100 for the full control effect); conditions: HEK293H PPARg-UAS-bla, beta-lactamase FRET ratio, 17 h
# How it was run: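 HEK293H PPARg-bla cells, 5 h settle at 37C/5% CO2; compound (DMSO) 17 h, 37C; B/G FRET substrate 1 h RT; fluorescence intensity read-out. qHTS format.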
# [3] = target: Peroxisome proliferator-activated receptor gamma (Homo sapiens) (UniProt P37231); assay: qHTS assay to identify small molecule antagonists of the peroxisome proliferator-activated receptor gamma (PPARg) signaling pathway (AID 743191; calls by dose curve; also: nearly all actives have a fitted effect of over 30% in size); conditions: HEK293H PPARg-UAS-bla, beta-lactamase ratio, antagonist, 17 h; ratio activity, negative = inhibition: at 62.6 µM (top of the series) unless noted
# How it was run: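 GeneBLAzer PPARg UAS-bla HEK293H cells carrying a UAS-driven beta-lactamase reporter were plated at 3000 cells/well, preincubated 5 h at 37C, then given compound for 17 h at 37C; LiveBLAzer B/G FRET substrate was read after 1 h at room temperature.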
# [4] = qHTS assay to identify small molecule antagonists of the peroxisome proliferator-activated receptor gamma (PPARg) signaling pathway - cell viability counter screen (AID 743194); conditions: PPARg-bla HEK293H viability, CellTiter-Glo luminescence, 17 h, co-treated with 50 nM rosiglitazone; activity change, negative = cytotoxicity: at 62.6 µM (top of the series) unless noted; also: nearly all actives have a fitted effect of over 55% in size
# How it was run: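 PPARg-UAS-bla HEK293H cells were plated, rested 5 h at 37 C, then treated with compounds plus rosiglitazone (50 nM final) for 17 h at 37 C; viability was then read by CellTiter-Glo luminescence after 30 min at room temperature.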
# [5] = qHTS assay for small molecule activators of the heat shock response signaling pathway - cell viability counter screen (AID 743209); conditions: HSE-bla HeLa viability, CellTiter-Glo luminescence, 5 h; activity change, negative = cytotoxicity: at 62.6 µM (top of the series) unless noted; also: nearly all actives have a fitted effect of over 50% in size
# How it was run: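 HSE-bla HeLa; 1500 cells/well; overnight 37 C, 5% CO2; compound 5 h 37 C; LiveBLAzer B/G substrate 2.5 h RT; CellTiter-Glo 30 min RT; luminescence.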
# [6] = qHTS assay to identify small molecule agonists of the peroxisome proliferator-activated receptor delta (PPARd) signaling pathway - cell viability counter screen (AID 743211); conditions: PPARd-bla HEK293H viability, CellTiter-Glo luminescence, 17 h; activity change, negative = cytotoxicity: at 62.6 µM (top of the series); also: nearly all actives have a fitted effect of over 55% in size
# How it was run: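 PPARd-bla HEK293H cells (UAS-beta-lactamase reporter) were treated with compounds for 17 h at 37 C. Viability was then read in the same wells by CellTiter-Glo luminescence after 30 min at room temperature.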
# [7] = target: Peroxisome proliferator-activated receptor delta (Homo sapiens) (UniProt Q03181); assay: qHTS assay to identify small molecule agonists of the peroxisome proliferator-activated receptor delta (PPARd) signaling pathway (AID 743212; calls by dose curve); conditions: HEK293H PPARd-UAS-bla, beta-lactamase FRET ratio, 17 h; activation: at 62.6 µM (top of the series) unless noted
# How it was run: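 Beta-lactamase reporter read by fluorescence (LiveBLAzer B/G FRET, 2 h, room temperature). Test agents, in DMSO, incubated at 37 C with PPARd-bla HEK293H cells.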
# [8] = qHTS assay to identify small molecule antagonists of the peroxisome proliferator-activated receptor delta (PPARd) signaling pathway - cell viability counter screen (AID 743213); conditions: PPARd-bla HEK293H viability, CellTiter-Glo luminescence, 17 h; viability change, negative = cytotoxic: at 62 µM (top of the series) unless noted; also: nearly all actives have a fitted effect of over 50% in size
# How it was run: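 Luminescence from CellTiter-Glo, added after the bla read and incubated 30 min at room temperature, gives viability of HEK293H PPARd-bla cells exposed to compounds for 17 h at 37 C with 300 nM L165041.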
# [9] = target: Peroxisome proliferator-activated receptor delta (Homo sapiens) (UniProt Q03181); assay: qHTS assay to identify small molecule antagonists of the peroxisome proliferator-activated receptor delta (PPARd) signaling pathway (AID 743215; active = well fitted inhibition curve with a large enough effect in the signal ratio in the repeat runs, not every such curve was filed as active; inconclusive = weak or mixed curves, or effect the other way; inactive = no such curve, though single readings can be large or run the other way; the % refers to the signal ratio;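 also: cells stimulated with agonist L165041 at 300 nM final during compound exposure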; as to ratio activity, negative = inhibition: % is scaled to controls: 0 for no effect and ±100 for the full control effect); conditions: HEK293H PPARd-UAS-bla, beta-lactamase FRET ratio, antagonist, 17 h; ratio activity, negative = inhibition: at 62 µM (top of the series) unless noted
# How it was run: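 HEK293H GeneBLAzer PPARd UAS-bla reporter cells; cpd + L165041 300 nM final, 17 h 37 C; LiveBLAzer B/G FRET substrate 2 h RT; fluorescence intensity read-out. Antagonist mode.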
# [10] = qHTS assay to identify small molecule agonists of the farnesoid-X-receptor (FXR) signaling pathway - cell viability counter screen (AID 743218); conditions: FXR-bla HEK293T viability, CellTiter-Glo luminescence, 16 h; viability change, negative = cytotoxic: at 62.6 µM (top of the series) unless noted; also: nearly all actives have a fitted effect of over 45% in size
# How it was run: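 Luminescence from CellTiter-Glo, read after 30 min at RT, reports viability of GeneBLAzer FXR-UAS-bla HEK 293T cells treated 16 h with compounds in the wells used for the beta-lactamase reporter.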
# [11] = target: Bile acid receptor (Homo sapiens) (UniProt Q96RI1); assay: qHTS assay to identify small molecule agonists of the farnesoid-X-receptor (FXR) signaling pathway (AID 743220; active = well fitted activation curve with a large enough effect in the signal ratio in the repeat runs, not every such curve was filed as active; inconclusive = weak or mixed curves, or effect the other way; the % refers to the signal ratio; as to activation: % is scaled to controls: 0 for no effect and ±100 for the full control effect); conditions: HEK293T FXR-UAS-bla, beta-lactamase FRET ratio, 16 h; activation: at 62.6 µM (top of the series) unless noted
# How it was run: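 FXR-UAS-bla HEK 293T cells carrying a UAS-driven beta-lactamase reporter were plated for 5 h at 37C/5% CO2, then exposed to DMSO-dissolved Tox21 10K compounds for 16 h at 37C. A LiveBLAzer B/G FRET substrate was loaded for 2 h at room temperature before fluorescence reading.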
# [12] = target: Vitamin D3 receptor (Homo sapiens) (UniProt P11473); assay: qHTS assay to identify small molecule agonists of the vitamin D receptor (VDR) signaling pathway (AID 743222; calls by dose curve; as to activation: % is scaled to controls: 0 for no effect and ±100 for the full control effect); conditions: HEK293T VDR-UAS-bla, beta-lactamase FRET ratio, 16 h; activation: at 63.5 µM (top of the series) unless noted
# How it was run: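 Beta-lactamase reporter readout (LiveBLAzer B/G FRET, 2 h RT) in VDR-bla cells after 16 h compound treatment at 37C, 5% CO2; cells pre-incubated 4 h before pin transfer of DMSO solutions.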
# [13] = target: Vitamin D3 receptor (Homo sapiens) (UniProt P11473); assay: qHTS assay to identify small molecule antagonists of the vitamin D receptor (VDR) signaling pathway (AID 743223; active = well fitted inhibition curve with a large enough effect in the signal ratio in the repeat runs, not every such curve was filed as active; inconclusive = weak or mixed curves, or effect the other way; inactive = no such curve, though single readings can be large or run the other way; the % refers to the signal ratio); conditions: VDR-UAS-bla HEK293T, beta-lactamase FRET ratio, 16 h; activity change, negative = inhibition: at 61 µM (top of the series) unless noted
# How it was run: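 VDR-bla cells were plated, incubated 4 h at 37C, then given compound and 1alpha,25-dihydroxyvitamin D3 (3 nM final). After 16 h at 37C, LiveBLAzer B/G FRET substrate was added for 2 h at room temperature and fluorescence read.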
# [14] = qHTS assay to identify small molecule agonists of the vitamin D receptor (VDR) signaling pathway - cell viability counter screen (AID 743224); conditions: VDR-bla HEK293T viability, CellTiter-Glo luminescence, 16 h; activity change, negative = cytotoxicity: at 62.6 µM (top of the series) unless noted; also: nearly all actives have a fitted effect of over 50% in size
# How it was run: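 Cytotoxicity counter screen: VDR-bla cells, 16 h compound exposure at 37C, 5% CO2; CellTiter-Glo luminescence, 30 min RT, same wells as bla read.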
# [15] = qHTS assay for small molecule agonists of the antioxidant response element (ARE) signaling pathway (AID 743202; active = well fitted activation curve with a large enough effect in the signal ratio in the repeat runs, not every such curve was filed as active; inconclusive = weak or mixed curves, or effect the other way; inactive = no such curve, though single readings can be large or run the other way; the % refers to the signal ratio); conditions: HepG2 ARE-bla reporter, beta-lactamase FRET, 16 h; activation: at 73.3 µM (top of the series) unless noted
# How it was run: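 Following a 16 h, 37 C exposure of reporter HepG2 cells (ARE-driven beta-lactamase, 2,000 cells/well) to compounds, FRET substrate was applied for 2 h at room temperature and fluorescence intensity recorded.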
# [16] = qHTS assay for small molecule agonists of the antioxidant response element (ARE) signaling pathway - cell viability counter screen (AID 743203; calls by dose curve; also: nearly all actives have a fitted effect of over 55% in size); conditions: ARE-bla HepG2 viability, CellTiter-Glo luminescence, 16 h; viability change, negative = cytotoxic: at 73.3 µM (top of the series)
# How it was run: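 Luminescence read-out (CellTiter-Glo, 30 min at room temperature) measured cell viability in the same wells as the ARE beta-lactamase reporter. HepG2 ARE-bla cells were treated with compounds for 16 hrs at 37C/5% CO2.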
# [17] = qHTS assay for small molecule activators of the heat shock response signaling pathway (AID 743210; active = well fitted activation curve with a large enough effect in the signal ratio in the repeat runs, with a control signal flat, not every such curve was filed as active; inconclusive = weak or mixed curves; the % refers to the signal ratio); conditions: HeLa HSE-bla reporter, beta-lactamase ratio, 5 h; activation: at 62.6 µM (top of the series)
# How it was run: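 Heat shock element–beta-lactamase HeLa reporter cells; qHTS with compounds for 5 h at 37 C; detection by FRET substrate fluorescence after 2.5 h at RT.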
# [18] = target: Bile acid receptor (Homo sapiens) (UniProt Q96RI1); assay: qHTS assay to identify small molecule antagonists of the farnesoid-X-receptor (FXR) signaling pathway (AID 743217; active = well fitted inhibition curve with a large enough effect in the signal ratio in the repeat runs, not every such curve was filed as active; inconclusive = weak or mixed curves, or effect the other way; inactive = no such curve, though single readings can be large or run the other way; the % refers to the signal ratio); conditions: HEK293T FXR-UAS-bla, beta-lactamase ratio, CDCA-stimulated, 16 h; activity change, negative = inhibition: at 62.6 µM (top of the series) unless noted
# How it was run: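 Read-out: beta-lactamase FRET fluorescence (LiveBLAzer B/G substrate, 2 h, room temperature) in GeneBLAzer FXR-UAS-bla HEK 293T cells. Compounds were co-dosed with 50 uM chenodeoxycholic acid (final) and incubated 16 h at 37 °C.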
# [19] = qHTS assay to identify small molecule antagonists of the farnesoid-X-receptor (FXR) signaling pathway - cell viability counter screen (AID 743221; active = well fitted cell-killing curve with a large enough effect in the repeat runs, not every such curve was filed as active; inconclusive = weak or mixed curves, or effect the other way; inactive = no such curve, though single readings can be large or run the other way; also: nearly all actives have a fitted effect of over 50% in size); conditions: FXR-bla HEK293T viability, CellTiter-Glo luminescence, 16 h; activity change, negative = cytotoxicity: at 62.6 µM (top of the series)
# How it was run: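 FXR-UAS-bla HEK 293T cells were treated with test compounds plus chenodeoxycholic acid (50 uM final) for 16 h at 37 C. Cell viability in the same wells was then read as CellTiter-Glo luminescence after 30 min at room temperature.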
# [20] = activation: at 57 µM (top of the series) unless noted
# Potency is read from the fitted curve at half-maximal effect; tags tell the direction and shape of the fitted curve or compound fluorescence and quenching.
# Sequence of UniProt P37231 (P37231 whole entry, looked up): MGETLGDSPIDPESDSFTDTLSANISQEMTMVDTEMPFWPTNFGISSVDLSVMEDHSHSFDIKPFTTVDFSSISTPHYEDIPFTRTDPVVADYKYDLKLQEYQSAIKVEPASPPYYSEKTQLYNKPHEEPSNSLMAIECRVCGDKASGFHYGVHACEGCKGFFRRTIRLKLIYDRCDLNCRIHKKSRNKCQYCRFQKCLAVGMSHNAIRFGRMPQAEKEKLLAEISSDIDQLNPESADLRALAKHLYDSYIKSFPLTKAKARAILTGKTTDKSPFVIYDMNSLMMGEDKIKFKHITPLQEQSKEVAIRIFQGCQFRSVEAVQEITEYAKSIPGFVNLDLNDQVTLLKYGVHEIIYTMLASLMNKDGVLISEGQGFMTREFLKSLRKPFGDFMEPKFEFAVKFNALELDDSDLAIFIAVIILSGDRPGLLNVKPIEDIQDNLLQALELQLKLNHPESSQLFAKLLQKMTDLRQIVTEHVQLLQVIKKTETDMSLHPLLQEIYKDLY
# Sequence of UniProt Q96RI1 (Q96RI1 whole entry, looked up): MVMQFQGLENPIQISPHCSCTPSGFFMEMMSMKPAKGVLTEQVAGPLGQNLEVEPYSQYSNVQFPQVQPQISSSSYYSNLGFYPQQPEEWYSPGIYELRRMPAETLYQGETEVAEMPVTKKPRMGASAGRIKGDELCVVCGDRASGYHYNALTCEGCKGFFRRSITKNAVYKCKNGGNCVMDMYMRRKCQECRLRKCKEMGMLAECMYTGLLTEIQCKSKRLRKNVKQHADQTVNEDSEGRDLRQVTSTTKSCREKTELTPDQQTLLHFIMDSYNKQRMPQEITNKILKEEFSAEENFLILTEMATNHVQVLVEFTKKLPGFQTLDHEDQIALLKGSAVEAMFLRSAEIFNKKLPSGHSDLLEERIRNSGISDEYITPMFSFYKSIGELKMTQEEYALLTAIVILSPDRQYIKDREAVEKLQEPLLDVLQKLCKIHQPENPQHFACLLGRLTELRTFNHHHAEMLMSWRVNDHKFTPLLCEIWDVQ
# Sequence of UniProt Q03181 (Q03181 whole entry, looked up): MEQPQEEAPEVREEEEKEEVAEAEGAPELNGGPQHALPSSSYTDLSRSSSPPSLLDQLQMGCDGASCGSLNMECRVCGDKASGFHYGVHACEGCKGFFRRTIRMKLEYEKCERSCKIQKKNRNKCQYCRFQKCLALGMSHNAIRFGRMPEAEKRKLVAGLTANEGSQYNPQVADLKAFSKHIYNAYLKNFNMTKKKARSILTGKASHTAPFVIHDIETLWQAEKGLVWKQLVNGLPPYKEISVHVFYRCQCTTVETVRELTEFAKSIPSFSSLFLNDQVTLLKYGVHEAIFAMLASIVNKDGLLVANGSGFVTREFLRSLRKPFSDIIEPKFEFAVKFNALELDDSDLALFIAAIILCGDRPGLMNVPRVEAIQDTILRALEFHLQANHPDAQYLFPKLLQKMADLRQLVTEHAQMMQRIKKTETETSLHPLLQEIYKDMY
# Sequence of UniProt P11473 (P11473 whole entry, looked up): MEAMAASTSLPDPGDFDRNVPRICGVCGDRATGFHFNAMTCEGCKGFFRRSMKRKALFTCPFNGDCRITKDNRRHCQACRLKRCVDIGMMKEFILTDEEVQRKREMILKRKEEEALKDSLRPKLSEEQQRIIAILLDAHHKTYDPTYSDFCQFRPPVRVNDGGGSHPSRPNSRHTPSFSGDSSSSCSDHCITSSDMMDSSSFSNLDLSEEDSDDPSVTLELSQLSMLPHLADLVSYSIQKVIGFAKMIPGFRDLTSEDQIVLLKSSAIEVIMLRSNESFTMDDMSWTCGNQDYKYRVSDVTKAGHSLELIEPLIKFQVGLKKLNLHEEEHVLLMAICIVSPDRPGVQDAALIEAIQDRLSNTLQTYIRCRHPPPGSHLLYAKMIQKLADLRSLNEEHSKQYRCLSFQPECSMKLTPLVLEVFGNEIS
structure (smiles),measurement,setting,value
C#CC1(O)CC[C@H]2[C@@H]3CCC4=CCCC[C@@H]4[C@H]3CC[C@@]21C (stereo partly specified),Potency,[1],"inconclusive: 68.6 µM [falling, single point]"
same,activation,[2]; [20],inconclusive: -16.1%
same,activation,[2]; at 26.2 µM (top of the series),inactive: 8.09%
same,Potency,[3],"inconclusive: 54.9 µM [inhibitor] and inconclusive: 33.5 µM [cytotoxic, single point]"
same,Potency,[4],"inconclusive: 54.9 µM [cytotoxic, single point] and active: 18.8 µM"
same,Potency,[5],"inconclusive: 61.6 µM [cytotoxic, single point] and active: 11.9 µM"
same,Potency,[6],"inconclusive: 61.6 µM [cytotoxic, partial curve, poor fit]"
same,Potency,[7],inconclusive: 33.5 µM [single point]
same,Potency,[8],"inconclusive: 54.9 µM [cytotoxic, single point] and active: 26.6 µM"
same,Potency,[9],"inconclusive: 61.6 µM [inhibitor, single point] and inconclusive: 33.5 µM [cytotoxic, single point]"
same,Potency,[10],"inconclusive: 54.9 µM [cytotoxic, single point] and active: 23.7 µM"
same,activation,[11],inconclusive: 48.1%
same,Potency,[12],inactive
same,Potency,[13],"inconclusive: 54.9 µM [inhibitor, single point] and inconclusive: 26.8 µM [inhibitor, single point]"
same,Potency,[14],active: 49 µM and active: 23.7 µM
Cc1cc(O)c(C(C)(C)C)cc1C(C)(C)C,Potency,[1],"inconclusive: 61.1 µM [falling, partial curve]"
same,Potency,[2]; [20],inconclusive: 54.9 µM
same,Potency,[3],"inconclusive: 54.9 µM [inhibitor, single point]"
same,Potency,[4],active: 49 µM
same,Potency,[15],inconclusive: 54.5 µM [partial curve]
same,Potency,[16],active: 54.5 µM
same,Potency,[17],inconclusive: 28.6 µM
same,Potency,[7],inconclusive: 54.9 µM [single point]
same,Potency,[8],active: 34.7 µM
same,"ratio activity, negative = inhibition",[9],inconclusive: 0.629%
same,Potency,[18],active: 49 µM
same,Potency,[10],active: 54.9 µM
same,Potency,[11],inconclusive: 54.9 µM
same,Potency,[19],active: 49 µM
same,Potency,[12],"inconclusive: 38.9 µM [falling, partial curve, poor fit]"
same,Potency,[13],active: 19.5 µM
